Some of the results follow. At the low end of the ranking the order means little.

The experiment has as its target T1, GST-Rok (full length) (UniProt O34857).
T1 sequence: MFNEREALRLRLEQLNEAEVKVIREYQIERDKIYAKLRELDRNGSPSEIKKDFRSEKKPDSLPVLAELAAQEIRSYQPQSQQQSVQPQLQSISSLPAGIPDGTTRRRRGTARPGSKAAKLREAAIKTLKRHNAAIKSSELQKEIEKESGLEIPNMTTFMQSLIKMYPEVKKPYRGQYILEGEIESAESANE
Description: protein binding microarray.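 Further: rank score from −0.5 (least bound) to 0.5 (best bound).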 Particulars: Rok is a gene silencer of Bacillus subtilis; high values mean tight binding; most listed sequences are background and not binding sites; double strand, one strand shown.
In the case of ACATGCAG, the binding signal is -0.0307 E-score.

In the case of AAACATCA, the binding signal was found to be 0.0364 E-score. The figure for CGACGGAG is -0.199 E-score. GATTTATA displayed a binding signal of 0.315 E-score. Sequence CTTAGAAC displayed a binding signal of 0.0504 E-score. GCCCTGCC: the binding signal was -0.341 E-score. The figure for GGAACCTA is -0.0327 E-score; for AGAGATCA it is -0.186 E-score. Turning to AAGGCAAC, the binding signal was -0.135 E-score. The same measure for ACACCTTC: -0.0521 E-score. The same measure for GCCAGTTA: 0.163 E-score. GAATACGA gave a binding signal of 0.0974 E-score. Sequence TAACTGGA gave a binding signal of 0.213 E-score. CTCGGGCA showed a binding signal of -0.192 E-score. With CACAAACA, the binding signal is 0.0611 E-score. Sequence TCGCACGA came in with a binding signal of -0.0828 E-score. For the sequence AGTCCGAG, the binding signal is -0.252 E-score.

Sequence CATGGTCA had a binding signal of -0.1 E-score. In turn, ACTGCGCG had a binding signal of -0.2 E-score.

Turning to ACTGGAAT, the binding signal was 0.144 E-score. The figure for AAGTTGAG is -0.123 E-score. The same measure for CGAAGGAA: -0.109 E-score; for AATTATGG: 0.312 E-score.

The sequence GATCAACA had a binding signal of -0.0993 E-score. Turning to CGCCCAGA, the binding signal is -0.254 E-score. The figure for CGAGAACC is -0.23 E-score. The same measure for CCAGGTAA: -0.00946 E-score; for CACCTCAG: -0.42 E-score. The same measure for CACTGTAA: 0.0774 E-score; for ATGTCTCG: -0.0514 E-score; for AACTCGCA: 0.123 E-score.

ATCCTCAT showed a binding signal of -0.00517 E-score.

The sequence GGCTTTAA showed a binding signal of -0.215 E-score. In turn, GGCCAGTA gave a binding signal of -0.181 E-score. GCTGAGGA: the binding signal is -0.0798 E-score.

The sequence AGTCGGCC had a binding signal of -0.156 E-score. AGACACAA had a binding signal of -0.0824 E-score. Consider CATAGTTC, for which the binding signal came out at 0.138 E-score. GACTTGCC showed a binding signal of 0.0372 E-score. The figure for CAGCAGGC is -0.256 E-score. In turn, AATCAGTG returned a binding signal of 0.128 E-score. The sequence CGTGGAGA returned a binding signal of 0.119 E-score.

GATTATTA returned a binding signal of 0.174 E-score. The same measure for AACGGTCG: -0.0798 E-score; for ACGAGCTA: -0.107 E-score; for ACATTAAT: 0.245 E-score.

With ATGATTTG, the binding signal was -0.123 E-score. CGTGCCAG displayed a binding signal of -0.0803 E-score.

On to AAGCGCCA, for which the binding signal was -0.231 E-score. On to AGCTAGTA, for which the binding signal was 0.373 E-score. In turn, ACGTCAGC came in with a binding signal of -0.0909 E-score. Take AGACGAGA: the binding signal stood at 0.0192 E-score. Regarding CTTCCGTA, the binding signal was -0.109 E-score. Sequence AATGTACT showed a binding signal of 0.303 E-score. With ATATATGA, the binding signal is 0.287 E-score. For the sequence AAGATTGG, the binding signal came out at 0.126 E-score. For GAATGCGA, the binding signal came out at 0.0795 E-score.

AGTTCGAT: the binding signal stood at 0.189 E-score. The same measure for ACACGATA: 0.0986 E-score; for GCCACGAC: -0.171 E-score.

For CGGCTGGA, the binding signal was -0.202 E-score. For AGACATTC, the binding signal came out at 0.0202 E-score. For CGGCTCCA, the binding signal was -0.34 E-score. The figure for GAAGACTC is -0.114 E-score. AAGCAGAG registered a binding signal of -0.194 E-score. The same measure for AAACCGAC: 0.0208 E-score; for GTCCCCAC: -0.264 E-score; for TGTTAACA: 0.207 E-score. ATGGACAG came in with a binding signal of -0.0031 E-score. For the sequence ATCGACTG, the binding signal is -0.0208 E-score. Consider AAACGCTC, for which the binding signal is -0.122 E-score. The figure for CTCGAGTA is 0.0734 E-score; for AATCGAAT it is 0.0416 E-score; for AAGCACTC it is -0.264 E-score. The sequence AGGCATCG had a binding signal of 0.00217 E-score.

As for CAACCCTC, the binding signal was -0.209 E-score. Sequence CCGCACCC returned a binding signal of -0.317 E-score. The same measure for AGTCGACT: -0.00311 E-score; for ACTTTAAA: 0.242 E-score. The same measure for CTGCTCCC: -0.265 E-score. The sequence TCCGGGAA gave a binding signal of -0.26 E-score. Consider CCCGTCTA, for which the binding signal is -0.29 E-score. With GCCGCCCA, the binding signal was -0.198 E-score. TTCGCAAA yielded a binding signal of 0.157 E-score. GAGCCTTA came in with a binding signal of -0.0793 E-score. The same measure for ACGCTTTC: -0.258 E-score; for AACAACGA: 0.0652 E-score; for TATCAGGA: 0.139 E-score. In turn, CCACGGGC returned a binding signal of -0.215 E-score. GCCCTGCA: the binding signal is -0.216 E-score. In turn, AGAACCGG had a binding signal of -0.204 E-score. The figure for ACTTAACC is 0.121 E-score; for ACCCGTCC it is -0.177 E-score; for ACAGCAGC it is -0.00981 E-score. On to AGGGGCTG, for which the binding signal is -0.483 E-score. Regarding CATGGCGG, the binding signal is -0.227 E-score. The sequence CGCCAGTA had a binding signal of -0.111 E-score. With ATCCGTCC, the binding signal is -0.178 E-score.

AGCGCTAT came in with a binding signal of -0.0624 E-score. The sequence CCACAGCC had a binding signal of -0.217 E-score. AGTGCACG had a binding signal of -0.0534 E-score. CTTGCTAC yielded a binding signal of -0.05 E-score. On to CGGTATAC, for which the binding signal was determined as 0.0441 E-score. The same measure for CCCCGGTA: -0.0467 E-score; for AAGCCGCT: -0.00361 E-score; for AAATATCA: 0.271 E-score. The sequence AATCGCGC had a binding signal of 0.205 E-score. CCTTCAAG: the binding signal is -0.258 E-score. Sequence AGGGCCTA had a binding signal of -0.298 E-score. AGGTTTAG showed a binding signal of 0.0105 E-score. CATTTGAG displayed a binding signal of 0.0304 E-score.

ACTTTTTG yielded a binding signal of -0.213 E-score. In turn, CCCCGTCG showed a binding signal of -0.379 E-score. Take ACGCATGA: the binding signal is -0.0569 E-score.

As for TACAACGA, the binding signal was found to be 0.203 E-score.

In turn, GACGCGGC gave a binding signal of -0.33 E-score. The figure for AATTGACA is 0.0528 E-score; for GTTGGCCA it is -0.0562 E-score. As for AATACGGT, the binding signal was 0.222 E-score. As for GATCCGGA, the binding signal stood at 0.154 E-score. As for GAAGGGTC, the binding signal is -0.33 E-score. The figure for CCTGCGAC is -0.25 E-score.

In turn, CCGCGCAA came in with a binding signal of -0.141 E-score.

Sequence AATTGCTG showed a binding signal of 0.22 E-score. TCGTGAAA showed a binding signal of 0.103 E-score.

Turning to AGCGATTA, the binding signal came to 0.109 E-score. On to CCGTACAG, for which the binding signal amounted to 0.0449 E-score. For the sequence ATGGGGTG, the binding signal was -0.221 E-score. Turning to AGTGCGAC, the binding signal was -0.0159 E-score.

As for GCGGGACC, the binding signal is -0.299 E-score. The same measure for CCGAGACA: -0.207 E-score; for CACCAGCC: -0.217 E-score; for CTTCCAAG: -0.126 E-score. GATCTGAC: the binding signal is -0.0144 E-score.

As for TACCACGA, the binding signal was 0.136 E-score. Sequence AGCGAAAC gave a binding signal of -0.0336 E-score. For the sequence CCTCTCGA, the binding signal is -0.153 E-score. The sequence ATATTTCA returned a binding signal of 0.213 E-score. For the sequence CTAGACCC, the binding signal is -0.252 E-score. CAACGGAC: the binding signal is -0.0159 E-score. Consider CGGGCCGA, for which the binding signal is -0.256 E-score. On to CACTTCCC, for which the binding signal was -0.26 E-score.

Turning to ACATTTTC, the binding signal amounted to 0.136 E-score. The same measure for AGTCTTAC: 0.101 E-score.

CGTGAAAA gave a binding signal of -0.0114 E-score. The sequence CCCATACA came in with a binding signal of -0.0298 E-score. The same measure for ACACTCCA: -0.0691 E-score.

With AGCAGACC, the binding signal is -0.166 E-score. CAACGATC showed a binding signal of -0.0242 E-score. CATGGGCG registered a binding signal of -0.239 E-score. With ACATCCGC, the binding signal is -0.0419 E-score. In turn, CTGATGCA displayed a binding signal of -0.106 E-score. In turn, CATTTTTC had a binding signal of 0.057 E-score. With CTATTTAA, the binding signal turned out to be 0.0252 E-score. AGGTAGGC had a binding signal of -0.115 E-score. Take CCGGACGG: the binding signal was -0.229 E-score. The figure for ACGTAACA is 0.165 E-score. Sequence GGCACGAC gave a binding signal of -0.246 E-score.

GACACTAA came in with a binding signal of 0.205 E-score.

Consider CGTCGCCC, for which the binding signal is -0.331 E-score. In the case of CGCCAGCC, the binding signal was -0.294 E-score. The figure for GTGGTTCA is -0.0937 E-score. The sequence CGAAGTCA came in with a binding signal of 0.00871 E-score.

GAGAAGCA: the binding signal is -0.0779 E-score. As for GGAATTAC, the binding signal stood at 0.26 E-score. Sequence AAGCGGGG had a binding signal of -0.236 E-score.

In turn, TCGCCAGA came in with a binding signal of -0.118 E-score. CTACCATA showed a binding signal of 0.328 E-score. With GGCCATAA, the binding signal was 0.00475 E-score. CTAAGTTC returned a binding signal of 0.152 E-score. The same measure for AATGCAGA: 0.0743 E-score. Regarding CTCGTTCA, the binding signal is -0.214 E-score.

These data come from article PMC6212790.
